Source: patent publication US20230250147A1 (Sanofi, published 2023)

T1: Mouse GLP-1R (mouse, UniProt O35659 22-463)
T1 sequence (looked up): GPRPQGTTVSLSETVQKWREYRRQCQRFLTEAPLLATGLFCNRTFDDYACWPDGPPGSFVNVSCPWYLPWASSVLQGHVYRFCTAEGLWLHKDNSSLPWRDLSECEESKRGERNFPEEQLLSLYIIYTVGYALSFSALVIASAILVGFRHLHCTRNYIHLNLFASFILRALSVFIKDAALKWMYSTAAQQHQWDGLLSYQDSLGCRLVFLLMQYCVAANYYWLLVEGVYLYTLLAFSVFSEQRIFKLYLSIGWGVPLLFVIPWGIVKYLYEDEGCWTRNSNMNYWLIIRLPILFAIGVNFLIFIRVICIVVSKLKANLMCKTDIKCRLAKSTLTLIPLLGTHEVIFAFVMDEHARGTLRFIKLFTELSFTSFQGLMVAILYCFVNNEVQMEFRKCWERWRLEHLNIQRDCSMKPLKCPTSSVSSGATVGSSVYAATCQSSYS

B1: GLP-1RA/FGF21 Fc fusion protein SEQ ID NO: 52 (Fc fusion)
chain: HGEGTFTSDLSKQLEEEAVQLFIEWLLATGPSSGEPPPKGGGGGGGSGGGGSGGGGSA[… human IgG4 Fc with changes …]GGGSGSAHPIPDSSPLLQFGGQVRQRYLYTDDACQTEAHLEIREDGTVGGAADQSPESLLQLKALKPGVIQILGVKTSRFLCQRPDGALYGSLHFDPEACSFRELLLEDGYNVYQSEAHGLPLHLPGCKSPHRDPAPRGPARFLPLPGLPPAPPEPPGILAPQPPDVGSSDPLSMVYPSQGRSPSYAS
B2: GLP-1RA/FGF21 Fc fusion protein SEQ ID NO: 51 (Fc fusion)
chain: HGEGTFTSDLSKQLEEEAVQLFIEWLLATGPSSGKPPPEGGGGGGGSGGGGSGGGGSA[… human IgG4 Fc with changes …]GGGSGSAHPIPDSSPLLQFGGQVRQRYLYTDDACQTEAHLEIREDGTVGGAADQSPESLLQLKALKPGVIQILGVKTSRFLCQRPDGALYGSLHFDPEACSFRELLLEDGYNVYQSEAHGLPLHLPGCKSPHRDPAPRGPARFLPLPGLPPAPPEPPGILAPQPPDVGSSDPLSMVYPSQGRSPSYAS
B3: GLP-1RA/FGF21 Fc fusion protein SEQ ID NO: 54 (Fc fusion)
chain: GHGEGTFTSDKSKQLEEEAVRLFIEWLKAGGHPSGKPPPKGGGGGGGSGGGGSGGGGSA[… human IgG4 Fc with changes …]GGGSGSAHPIPDSSPLLQFGGQVRQRYLYTDDACQTEAHLEIREDGTVGGAADQSPESLLQLKALKPGVIQILGVKTSRFLCQRPDGALYGSLHFDPEACSFRELLLEDGYNVYQSEAHGLPLHLPGCKSPHRDPAPRGPARFLPLPGLPPAPPEPPGILAPQPPDVGSSDPLSMVGSQGRSPSYAS
B4: GLP-1RA/FGF21 Fc fusion protein SEQ ID NO: 67 (Fc fusion)
chain: GHGEGTFTSDLSIQLEEEAVRLFIEWLLAGGPSSGKPPPKGGGGGGGSGGGGSGGGGSA[… human IgG4 Fc with changes …]GGGSGSAHPIPDSSPLLQFGGQVRQRYLYTDDACQTEAHLEIREDGTVGGAADQSPESLLQLKALKPGVIQILGVKTSRFLCQRPDGALYGSLHFDPEACSFRELLLEDGYNVYQSEAHGLPLHLPGCKSPHRDPAPRGPARFLPLPGLPPAPPEPPGILAPQPPDVGSSDPLSMVGSQGRSPSYAS
B5: GLP-1RA/FGF21 Fc fusion protein SEQ ID NO: 70 (Fc fusion)
chain: GHGEGTFTSDLSIQLEEEAVRLFIEWLLAKGKSKGKPKPKGGGGGGGSGGGGSGGGGSA[… human IgG4 Fc with changes …]GGGSGSAHPIPDSSPLLQFGGQVRQRYLYTDDACQTEAHLEIREDGTVGGAADQSPESLLQLKALKPGVIQILGVKTSRFLCQRPDGALYGSLHFDPEACSFRELLLEDGYNVYQSEAHGLPLHLPGCKSPHRDPAPRGPARFLPLPGLPPAPPEPPGILAPQPPDVGSSDPLSMVGSQGRSPSYAS
B6: GLP-1RA/FGF21 Fc fusion protein SEQ ID NO: 68 (Fc fusion)
chain: GHGEGTFTSDLSIQLEEEAVRLFIEWLLAGGPSKGKPPPKGGGGGGGSGGGGSGGGGSA[… human IgG4 Fc with changes …]GGGSGSAHPIPDSSPLLQFGGQVRQRYLYTDDACQTEAHLEIREDGTVGGAADQSPESLLQLKALKPGVIQILGVKTSRFLCQRPDGALYGSLHFDPEACSFRELLLEDGYNVYQSEAHGLPLHLPGCKSPHRDPAPRGPARFLPLPGLPPAPPEPPGILAPQPPDVGSSDPLSMVGSQGRSPSYAS
B7: GLP-1RA/FGF21 Fc fusion protein SEQ ID NO: 55 (Fc fusion)
chain: GHGEGTFTSDKSIQLEEEAVRLFIEWLLAGGHPSGKPPPKGGGGGGGSGGGGSGGGGSA[… human IgG4 Fc with changes …]GGGSGSAHPIPDSSPLLQFGGQVRQRYLYTDDACQTEAHLEIREDGTVGGAADQSPESLLQLKALKPGVIQILGVKTSRFLCQRPDGALYGSLHFDPEACSFRELLLEDGYNVYQSEAHGLPLHLPGCKSPHRDPAPRGPARFLPLPGLPPAPPEPPGILAPQPPDVGSSDPLSMVGSQGRSPSYAS
B8: GLP-1RA/FGF21 Fc fusion protein SEQ ID NO: 69 (Fc fusion)
chain: GHGEGTFTSDLSIQLEEEAVRLFIEWLLAGGPSSGKPKPKGGGGGGGSGGGGSGGGGSA[… human IgG4 Fc with changes …]GGGSGSAHPIPDSSPLLQFGGQVRQRYLYTDDACQTEAHLEIREDGTVGGAADQSPESLLQLKALKPGVIQILGVKTSRFLCQRPDGALYGSLHFDPEACSFRELLLEDGYNVYQSEAHGLPLHLPGCKSPHRDPAPRGPARFLPLPGLPPAPPEPPGILAPQPPDVGSSDPLSMVGSQGRSPSYAS
B9: GLP-1RA/FGF21 Fc fusion protein SEQ ID NO: 58 (Fc fusion)
chain: YGEGTFTSDKSKLLEKRLVRLFIEWLIAGGHSSGKPPPKGGGGGGGSGGGGSGGGGSA[… human IgG4 Fc with changes …]GGGSGSAHPIPDSSPLLQFGGQVRQRYLYTDDACQTEAHLEIREDGTVGGAADQSPESLLQLKALKPGVIQILGVKTSRFLCQRPDGALYGSLHFDPEACSFRELLLEDGYNVYQSEAHGLPLHLPGCKSPHRDPAPRGPARFLPLPGLPPAPPEPPGILAPQPPDVGSSDPLSMVGSQGRSPSYAS
B10: GLP-1RA/FGF21 Fc fusion protein SEQ ID NO: 62 (Fc fusion)
chain: YGEGTFTSDKSKQLEKRLVRLFIEWLIKGGHSSGKPPPKGGGGGGGSGGGGSGGGGSA[… human IgG4 Fc with changes …]GGGSGSAHPIPDSSPLLQFGGQVRQRYLYTDDACQTEAHLEIREDGTVGGAADQSPESLLQLKALKPGVIQILGVKTSRFLCQRPDGALYGSLHFDPEACSFRELLLEDGYNVYQSEAHGLPLHLPGCKSPHRDPAPRGPARFLPLPGLPPAPPEPPGILAPQPPDVGSSDPLSMVGSQGRSPSYAS
B11: GLP-1RA/FGF21 Fc fusion protein SEQ ID NO: 64 (Fc fusion)
chain: HTEGTFTSDKSKQLEKRLVRLFIEWLIKGGHSSGKPPPKGGGGGGGSGGGGSGGGGSA[… human IgG4 Fc with changes …]GGGSGSAHPIPDSSPLLQFGGQVRQRYLYTDDACQTEAHLEIREDGTVGGAADQSPESLLQLKALKPGVIQILGVKTSRFLCQRPDGALYGSLHFDPEACSFRELLLEDGYNVYQSEAHGLPLHLPGCKSPHRDPAPRGPARFLPLPGLPPAPPEPPGILAPQPPDVGSSDPLSMVGSQGRSPSYAS
B12: GLP-1RA/FGF21 Fc fusion protein SEQ ID NO: 66 (Fc fusion)
chain: GHGEGTFTSDKSKQLEEEAVRLFIEWLKAGGPKKQRLSGGGGGGGSGGGGSGGGGSA[… human IgG4 Fc with changes …]GGGSGSAHPIPDSSPLLQFGGQVRQRYLYTDDACQTEAHLEIREDGTVGGAADQSPESLLQLKALKPGVIQILGVKTSRFLCQRPDGALYGSLHFDPEACSFRELLLEDGYNVYQSEAHGLPLHLPGCKSPHRDPAPRGPARFLPLPGLPPAPPEPPGILAPQPPDVGSSDPLSMVGSQGRSPSYAS

Each binder was assayed against T1, Mouse GLP-1R (assay: cell-based or functional assay).

Point of comparison: B11, “HTRF cAMP EC50” value 0.00608 nM. Against it:
- B1 — within 1.5-fold, 0.00704 nM
- B2 — within 1.5-fold, 0.00758 nM
- B3 — 20-fold higher, 0.119 nM
- B4 — 1.7-fold higher, 0.0102 nM
- B5 — 14-fold higher, 0.0831 nM
- B6 — 1.5-fold higher, 0.00942 nM
- B7 — 98-fold higher, 0.596 nM
- B8 — 2.8-fold higher, 0.0173 nM
- B9 — within 1.5-fold, 0.00719 nM
- B10 — 2.2-fold higher, 0.0134 nM
- B12 — 1.8-fold higher, 0.011 nM

The binders below were run against Monkey GLP-1R (monkey) (assay: cell-based or functional assay).

Point of comparison: B9, “HTRF cAMP EC50” value 0.00576 nM. Against it:
- B1 — 8-fold higher, 0.046 nM
- B2 — 8.9-fold higher, 0.0511 nM
- B3 — 17-fold higher, 0.0974 nM
- B4 — 3.8-fold higher, 0.0216 nM
- B5 — 6.7-fold higher, 0.0388 nM
- B6 — 1.9-fold higher, 0.0108 nM
- B7 — 27-fold higher, 0.157 nM
- B8 — 2.6-fold higher, 0.0147 nM
- B10 — 2.2-fold higher, 0.0129 nM
- B11 — within 1.5-fold, 0.00747 nM
- B12 — 5.5-fold higher, 0.0314 nM

What follows are binders tested against human glucagon-like peptide-1 (GLP-1) receptor (human, UniProt P43220 24-463) (assay: cell-based or functional assay).

Point of comparison: B10, “HTRF cAMP EC50” value 0.0203 nM. Against it:
- B1 — within 1.5-fold, 0.0256 nM
- B2 — within 1.5-fold, 0.0268 nM
- B3 — 5.3-fold higher, 0.107 nM
- B4 — 1.8-fold higher, 0.0365 nM
- B5 — 2-fold higher, 0.0414 nM
- B6 — within 1.5-fold, 0.0167 nM
- B7 — 13-fold higher, 0.261 nM
- B8 — within 1.5-fold, 0.0153 nM
- B9 — 2.2-fold lower, 0.00938 nM
- B11 — 2.2-fold lower, 0.00909 nM
- B12 — 1.7-fold higher, 0.0338 nM
